# Experimental data reported in the supplement of paper PMC8728848.
# This is one part of the list.
# B1: LecB PA14 (Pseudomonas aeruginosa) (protein)
# chain: MATQGVFTLPANTQFGVTAFANSAGTQTVNVQVNNETVATFTGQSTNNAIIGSKVLNSGGGGKVQILVSVNGRSSDLVSAQVILANELNFALVGSEDSTDNDYNDAVVVINWPLG
# Key:
# Test in all cases: glycan array binding signal (z-score within array); higher = stronger binding
# Conditions in all cases: glycan notation: IUPAC condensed, linker removed
# [1] = target: Fuc(a1-2)[GalNAc(a1-3)]Gal(b1-3)GlcNAc(b1-6)GalNAc
# Procedure, shortened: (§1)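 Negative Z-scores can be read as non-binding. The Z-score is calculated within each array and then averaged across arrays of one protein sequence at different concentrations or buffers and across linkers. Arrays, 3228 in all, were curated from the Consortium for Functional Glycomics database and kept only where the protein sequence was available.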
# [2] = target: Fuc(a1-2)[GalNAc(a1-3)]Gal(b1-4)Glc
# Procedure, shortened: as §1
# [3] = target: Fuc(a1-2)[GalNAc(a1-3)]Gal(b1-4)GlcNAc
# Procedure, shortened: as §1
# [4] = target: Fuc(a1-2)[GalNAc(a1-3)]Gal(b1-4)GlcNAc(b1-2)Man
# Procedure, shortened: as §1
# [5] = target: Fuc(a1-2)[GalNAc(a1-3)]Gal(b1-4)GlcNAc(b1-2)Man(a1-3)[Fuc(a1-2)[GalNAc(a1-3)]Gal(b1-4)GlcNAc(b1-2)Man(a1-6)]Man(b1-4)GlcNAc(b1-4)GlcNAc
# Procedure, shortened: as §1
# [6] = target: Fuc(a1-2)[GalNAc(a1-3)]Gal(b1-4)GlcNAc(b1-2)Man(a1-3)[Fuc(a1-2)[GalNAc(a1-3)]Gal(b1-4)GlcNAc(b1-2)Man(a1-6)]Man(b1-4)GlcNAc(b1-4)[Fuc(a1-6)]GlcNAc
# Procedure, shortened: as §1
# [7] = target: Fuc(a1-2)[GalNAc(a1-3)]Gal(b1-4)GlcNAc(b1-3)Gal(b1-4)GlcNAc
# Procedure, shortened: as §1
# [8] = target: Fuc(a1-2)[GalNAc(a1-3)]Gal(b1-4)GlcNAc(b1-3)Gal(b1-4)GlcNAc(b1-3)Gal(b1-4)GlcNAc
# Procedure, shortened: as §1
# [9] = target: Fuc(a1-2)[GalNAc(a1-3)]Gal(b1-4)GlcNAc(b1-3)GalNAc
# Procedure, shortened: as §1
# [10] = target: Fuc(a1-2)[GalNAc(a1-3)]Gal(b1-4)GlcNAc(b1-3)[Fuc(a1-2)[GalNAc(a1-3)]Gal(b1-4)GlcNAc(b1-6)]GalNAc
# Procedure, shortened: as §1
# [11] = target: Fuc(a1-2)[GalNAc(a1-3)]Gal(b1-4)GlcNAc(b1-6)GalNAc
# Procedure, shortened: as §1
# [12] = target: Fuc(a1-2)[GalNAc(a1-3)]Gal(b1-4)[Fuc(a1-3)]GlcNAc
# Procedure, shortened: as §1
# [13] = target: Fuc(a1-2)[GalNAc(a1-3)]Gal(b1-4)[Fuc(a1-3)]GlcNAc(b1-3)GalNAc
# Procedure, shortened: as §1
# [14] = target: Fuc(a1-2)[GalNAc(a1-4)]Gal(b1-4)GlcNAc
# Procedure, shortened: as §1
# [15] = target: Fuc(a1-2)[GalNAc(b1-3)]Gal
# Procedure, shortened: as §1
# Fuc(a1-3)GlcNAc = target: Fuc(a1-3)GlcNAc
# Procedure, shortened: as §1
# [16] = target: Fuc(a1-3)[Gal(b1-4)]Glc6S
# Procedure, shortened: as §1
# [17] = target: Fuc(a1-3)[Gal(b1-4)]GlcNAc
# Procedure, shortened: as §1
# [18] = target: Fuc(a1-3)[Gal(b1-4)]GlcNAc(b1-2)Man
# Procedure, shortened: as §1
# [19] = target: Fuc(a1-3)[Gal(b1-4)]GlcNAc(b1-2)Man(a1-3)[Fuc(a1-3)[Gal(b1-4)]GlcNAc(b1-2)Man(a1-6)]Man(b1-4)GlcNAc(b1-4)GlcNAc
# Procedure, shortened: as §1
# [20] = target: Fuc(a1-3)[Gal(b1-4)]GlcNAc(b1-2)Man(a1-3)[Fuc(a1-3)[Gal(b1-4)]GlcNAc(b1-2)Man(a1-6)]Man(b1-4)GlcNAc(b1-4)[Fuc(a1-6)]GlcNAc
# Procedure, shortened: as §1
# [21] = target: Fuc(a1-3)[Gal(b1-4)]GlcNAc(b1-3)Gal(b1-3)[Fuc(a1-4)]GlcNAc
# Procedure, shortened: as §1
# [22] = target: Fuc(a1-3)[Gal(b1-4)]GlcNAc(b1-3)Gal(b1-4)[Fuc(a1-3)]GlcNAc
# Procedure, shortened: as §1
# [23] = target: Fuc(a1-3)[Gal(b1-4)]GlcNAc(b1-3)Gal(b1-4)[Fuc(a1-3)]GlcNAc(b1-3)Gal(b1-4)[Fuc(a1-3)]GlcNAc
# Procedure, shortened: as §1
# [24] = target: Fuc(a1-3)[Gal(b1-4)]GlcNAc(b1-3)GalNAc
# Procedure, shortened: as §1
# [25] = target: Fuc(a1-3)[Gal(b1-4)]GlcNAc(b1-6)GalNAc
# Procedure, shortened: as §1
# [26] = target: Fuc(a1-3)[Gal(b1-4)]GlcNAc(b1-6)[Gal(b1-3)GlcNAc(b1-3)]Gal(b1-4)Glc
# Procedure, shortened: as §1
# [27] = target: Fuc(a1-3)[Gal(b1-4)]GlcNAc6S
# Procedure, shortened: as §1
# [28] = target: Fuc(a1-3)[Gal3S(b1-4)]Glc
# Procedure, shortened: as §1
# [29] = target: Fuc(a1-3)[Gal3S(b1-4)]GlcNAc
# Procedure, shortened: as §1
# [30] = target: Fuc(a1-3)[Gal3S(b1-4)]GlcNAc6S
# Procedure, shortened: as §1
# [31] = target: Fuc(a1-3)[GalNAc(b1-4)]GlcNAc
# Procedure, shortened: as §1
# [32] = target: Fuc(a1-3)[GalNAc(b1-4)]GlcNAc6S
# Procedure, shortened: as §1
# Fuc(a1-4)GlcNAc = target: Fuc(a1-4)GlcNAc
# Procedure, shortened: as §1
# Fuc(b1-3)GlcNAc = target: Fuc(b1-3)GlcNAc
# Procedure, shortened: as §1
# Gal(a1-2)Gal = target: Gal(a1-2)Gal
# Procedure, shortened: as §1
# Gal(a1-3)Gal = target: Gal(a1-3)Gal
# Procedure, shortened: as §1
# Gal(a1-3)Gal(b1-3)GlcNAc = target: Gal(a1-3)Gal(b1-3)GlcNAc
# Procedure, shortened: as §1
# [33] = target: Gal(a1-3)Gal(b1-3)GlcNAc(b1-2)Man
# Procedure, shortened: as §1
# [34] = target: Gal(a1-3)Gal(b1-3)GlcNAc(b1-2)Man(a1-3)[Gal(a1-3)Gal(b1-3)GlcNAc(b1-2)Man(a1-6)]Man(b1-4)GlcNAc(b1-4)GlcNAc
# Procedure, shortened: as §1
# [35] = target: Gal(a1-3)Gal(b1-3)GlcNAc(b1-3)GalNAc
# Procedure, shortened: as §1
# [36] = target: Gal(a1-3)Gal(b1-3)GlcNAc(b1-6)GalNAc
# Procedure, shortened: as §1
# [37] = target: Gal(a1-3)Gal(b1-3)[Fuc(a1-4)]GlcNAc(b1-2)Man(a1-3)[Gal(a1-3)Gal(b1-3)[Fuc(a1-4)]GlcNAc(b1-2)Man(a1-6)]Man(b1-4)GlcNAc(b1-4)GlcNAc
# Procedure, shortened: as §1
# Gal(a1-3)Gal(b1-4)Glc = target: Gal(a1-3)Gal(b1-4)Glc
# Procedure, shortened: as §1
# Gal(a1-3)Gal(b1-4)GlcNAc = target: Gal(a1-3)Gal(b1-4)GlcNAc
# Procedure, shortened: as §1
binder,measurement,setting,value
B1,glycan array binding signal (z-score),[1],-0.191
same,glycan array binding signal (z-score),[2],0.672
same,glycan array binding signal (z-score),[3],-0.464
same,glycan array binding signal (z-score),[4],-0.555
same,glycan array binding signal (z-score),[5],-0.687
same,glycan array binding signal (z-score),[6],0.936
same,glycan array binding signal (z-score),[7],-0.605
same,glycan array binding signal (z-score),[8],-0.182
same,glycan array binding signal (z-score),[9],-0.255
same,glycan array binding signal (z-score),[10],-0.208
same,glycan array binding signal (z-score),[11],-0.429
same,glycan array binding signal (z-score),[12],0.193
same,glycan array binding signal (z-score),[13],0.828
same,glycan array binding signal (z-score),[14],1.75
same,glycan array binding signal (z-score),[15],-0.241
same,glycan array binding signal (z-score),Fuc(a1-3)GlcNAc,-0.19
same,glycan array binding signal (z-score),[16],-0.209
same,glycan array binding signal (z-score),[17],0.338
same,glycan array binding signal (z-score),[18],-0.362
same,glycan array binding signal (z-score),[19],-0.401
same,glycan array binding signal (z-score),[20],-0.163
same,glycan array binding signal (z-score),[21],0.201
same,glycan array binding signal (z-score),[22],0.034
same,glycan array binding signal (z-score),[23],4.17
same,glycan array binding signal (z-score),[24],-0.769
same,glycan array binding signal (z-score),[25],-0.311
same,glycan array binding signal (z-score),[26],0.475
same,glycan array binding signal (z-score),[27],2.1
same,glycan array binding signal (z-score),[28],-0.244
same,glycan array binding signal (z-score),[29],0.431
same,glycan array binding signal (z-score),[30],-0.189
same,glycan array binding signal (z-score),[31],5.42
same,glycan array binding signal (z-score),[32],2.49
same,glycan array binding signal (z-score),Fuc(a1-4)GlcNAc,1.58
same,glycan array binding signal (z-score),Fuc(b1-3)GlcNAc,-0.502
same,glycan array binding signal (z-score),Gal(a1-2)Gal,-0.53
same,glycan array binding signal (z-score),Gal(a1-3)Gal,-0.72
same,glycan array binding signal (z-score),Gal(a1-3)Gal(b1-3)GlcNAc,-0.235
same,glycan array binding signal (z-score),[33],-0.751
same,glycan array binding signal (z-score),[34],-0.562
same,glycan array binding signal (z-score),[35],-0.291
same,glycan array binding signal (z-score),[36],-0.11
same,glycan array binding signal (z-score),[37],2.54
same,glycan array binding signal (z-score),Gal(a1-3)Gal(b1-4)Glc,-0.164
same,glycan array binding signal (z-score),Gal(a1-3)Gal(b1-4)GlcNAc,-0.867
